Assay results reported in PubChem BioAssay AID504339 (National Center for Advancing Translational Sciences (NCATS), 2011).
The campaign covered roughly 390,000 compounds. About 17,000 (4.4%) were called active. The inconclusive results got no clear call from the source; some entries with a clear call stand among them for comparison. The call rests on the fitted dose curve; in most records, active means well fitted inhibition curve with a large enough effect; inconclusive means small, poorly fitted or top-dose-only effect; inactive means no such curve, though single readings can be large or run the other way. A potency beside an inconclusive call is a rough fit, not a confirmed value.

Target: Lysine-specific demethylase 4A (Homo sapiens) (UniProt O75164)
UniProt O75164, sequence (O75164 whole entry, looked up, the tested form may be a part): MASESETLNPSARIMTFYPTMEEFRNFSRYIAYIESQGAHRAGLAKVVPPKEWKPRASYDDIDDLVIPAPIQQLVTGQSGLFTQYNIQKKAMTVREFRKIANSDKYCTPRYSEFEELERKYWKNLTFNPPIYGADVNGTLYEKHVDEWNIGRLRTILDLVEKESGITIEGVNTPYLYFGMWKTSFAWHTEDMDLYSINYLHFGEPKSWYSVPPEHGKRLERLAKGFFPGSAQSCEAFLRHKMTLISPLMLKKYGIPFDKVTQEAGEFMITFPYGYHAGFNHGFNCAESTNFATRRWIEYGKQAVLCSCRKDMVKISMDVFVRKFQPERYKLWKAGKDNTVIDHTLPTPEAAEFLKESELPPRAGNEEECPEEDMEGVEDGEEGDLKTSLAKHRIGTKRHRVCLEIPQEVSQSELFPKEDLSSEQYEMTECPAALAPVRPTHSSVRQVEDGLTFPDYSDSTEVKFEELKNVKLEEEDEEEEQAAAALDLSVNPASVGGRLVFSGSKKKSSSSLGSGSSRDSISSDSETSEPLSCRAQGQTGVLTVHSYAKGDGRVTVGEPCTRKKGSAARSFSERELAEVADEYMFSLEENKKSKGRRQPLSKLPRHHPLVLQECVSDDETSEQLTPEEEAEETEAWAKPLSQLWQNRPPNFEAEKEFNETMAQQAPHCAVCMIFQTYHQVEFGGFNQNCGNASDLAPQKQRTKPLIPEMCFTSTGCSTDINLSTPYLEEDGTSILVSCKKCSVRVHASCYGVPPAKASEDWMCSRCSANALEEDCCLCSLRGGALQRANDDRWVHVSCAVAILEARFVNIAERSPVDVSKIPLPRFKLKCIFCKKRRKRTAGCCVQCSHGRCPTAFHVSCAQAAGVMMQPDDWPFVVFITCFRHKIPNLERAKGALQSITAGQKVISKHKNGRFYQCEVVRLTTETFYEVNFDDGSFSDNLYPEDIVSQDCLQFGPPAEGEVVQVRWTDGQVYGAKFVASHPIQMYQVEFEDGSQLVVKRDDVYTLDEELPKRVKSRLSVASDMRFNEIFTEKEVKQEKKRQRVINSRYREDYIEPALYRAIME
Test: qHTS Assay for Inhibitors of JMJD2A-Tudor Domain; further: nearly all actives have a fitted effect of over 50% in size
Details: AlphaScreen JMJD2A-Tudor / H3K4me3 peptide binding; activity change, negative = inhibition: at 114 µM (top of the series)
On the % scale 0 is the no-effect control and ±100 the full control effect; potency means the concentration at half of the fitted maximal effect; tags describe the fitted curve by direction and shape.

SMILES | activity change, negative = inhibition | Potency
COc1cc(OC)c(Nc2cc(C)nc3ncnn23)cc1Cl | inactive: -17.5% | 
CC(Nc1cc(N2CCNCC2)ccc1[N+](=O)[O-])c1ccccc1 (stereo unspecified) |  | inconclusive: 35.5 µM [inhibitor, partial curve]
Cc1ccc(Nc2nc(-c3c(C)nc4ncccn34)cs2)cc1 |  | inconclusive: 50.1 µM [inhibitor, partial curve]
O=C(Nc1ccccc1)C1CCN(S(=O)(=O)c2ccc3c(c2)OCCO3)CC1 |  | inconclusive: 2.51 µM [inhibitor, partial curve, poor fit]
CCOc1cc(N2CCOCC2)c(OCC)cc1NC(=O)COc1cccc2cccnc12 |  | inconclusive: 79.4 µM [inhibitor, partial curve]
NC(=O)C[C@H](N)c1cn([C@@H](CC(N)=O)C(=O)N2CCNCC2)nn1 |  | active: 79.4 µM
CCOC(=O)[C@H]1[C@H]2COc3ccc(Cl)cc3[C@@H]2N2C(=O)CN(Cc3ccco3)C(=O)[C@@]12C |  | inconclusive: 25.1 µM [inhibitor, single point]
CCOC(=O)c1c[nH]c2c(Cl)c(Cl)ccc2c1=O |  | inconclusive: 31.6 µM [inhibitor, partial curve]
COc1ccc(NC(=O)c2c(NCc3ccc(C)o3)sc3c2CCC(C)C3)c(OC)c1 (stereo unspecified) |  | active: 28.2 µM
COc1ccc(-c2n[nH]c(=S)n2CC(C)C)cc1 |  | active: 3.98 µM
COc1ccc(C(=O)c2cn(CC(=O)Nc3ccc4c(c3)OCCO4)c3ccc(OC)cc3c2=O)cc1 |  | inconclusive: 31.6 µM [inhibitor, partial curve]
O=C(O)COc1ccccc1/C=N/NC(=O)CSc1nc2ccccc2c(=O)n1-c1ccc(Cl)cc1 |  | inconclusive: 100 µM [inhibitor, single point]
COc1ccc(C2/C=C\CN(CC(C)C)C(Cc3ccccc3)C(=O)N2Cc2ccc(F)cc2)cc1 (stereo unspecified) | inactive: -5.52% | 
CCC(C)[C@@H](N)C(=O)N/N=C/c1cccc2nccnc12 (stereo partly specified) |  | active: 50.1 µM
Cc1[nH]c2ccccc2c1C(c1ccccn1)N1CCC(C(N)=O)CC1 (stereo unspecified) |  | inconclusive: 56.2 µM [inhibitor, partial curve]
O=C(CSc1nc(-c2ccccc2)no1)N1CCN(c2ccccc2F)CC1 |  | active: 20 µM
COc1ccc(NC(=O)CN(C)C(=O)CCCNC(=O)c2ccc(Cl)cc2)cc1 | inactive: -0.69% | 
CCc1ccc(CNC(=O)CCSCc2ccccc2F)cc1 | inactive: 6.42% | 
Cc1cccc(NC(=O)c2sccc2-n2cccc2)c1C |  | inconclusive: 89.1 µM [inhibitor, single point]
Cc1cc(C)n(-c2cccc3cccnc23)n1 | inactive: -13.4% | 
CCOc1ccccc1N1C(=O)CC(Nc2ccc(N3CCOCC3)cc2)C1=O (stereo unspecified) |  | inconclusive: 56.2 µM [inhibitor, partial curve]
CCCOc1ccc(C(=O)c2nc3c(n2O)CCCC3)cc1 |  | inconclusive: 44.7 µM [inhibitor, partial curve]
Nc1nc(CN2CCOCC2)cs1 |  | active: 22.4 µM

SMILES | activity change, negative = inhibition | Potency
CC12CCC(C)(c3nc4ccccc4nc31)C2(C)C |  | inconclusive: 39.8 µM [inhibitor, partial curve]
c1ccc2c(c1)ncn2CCCCOc1ccc2c(c1)CCC2 |  | active: 2.82 µM
COC(=O)C(Cc1c[nH]c2ccccc12)NC(=O)COc1ccc(Cl)cc1Cl (stereo unspecified) |  | inconclusive: 89.1 µM [inhibitor, partial curve]
CCOc1ccc(-n2c(CCC(=O)O)ccc2-c2ccc(Br)cc2)cc1 |  | inconclusive: 39.8 µM [inhibitor, partial curve]
O=C1C(NS(=O)(=O)c2cccs2)=C(N2CCN(c3ccccc3)CC2)C(=O)c2ccccc21 |  | active: 28.2 µM
COC(=O)[C@@]1(Cc2ccccc2)[C@H]2C(=O)N(C)C(=O)[C@H]2[C@H]2CN=C(SCc3ccc(C)cc3)N21 |  | inconclusive: 89.1 µM [inhibitor, partial curve]
CC(/C=C1\SC(=S)N(CCC(=O)Nc2ccc(O)cc2)C1=O)=C\c1ccccc1 |  | inconclusive: 56.2 µM [inhibitor, partial curve]
O=C(O)c1cccnc1SCc1ccc([N+](=O)[O-])cc1 | inactive: 2.35% | 
O=C(O)c1ccc(OCc2ccc(C(=O)O)o2)cc1 | inactive: -17.1% | 
O=C(c1ccc(F)cc1)N1CCN(C2CC3CCC2C3)CC1 (stereo unspecified) |  | inconclusive: 39.8 µM [inhibitor, single point]
Cc1ccc(-n2c(C)n[nH]c2=S)cc1 |  | active: 10 µM
C(=N\C(/N=C/c1ccco1)c1ccco1)/c1ccco1 |  | inconclusive: 79.4 µM [inhibitor, partial curve]
CCOc1cccc(=O)c2c(C)n(-c3ccc(C(=O)O)cc3)c(C)c12 |  | inconclusive: 63.1 µM [inhibitor, partial curve, poor fit]
CCOc1cc(/C=C(\C(=O)O)c2ccc(S(=O)(=O)N3CCCC3)s2)ccc1OC | inactive: -5.03% | 
COc1ccc(NS(=O)(=O)c2cc(C(=O)N3CCN(C/C=C/c4ccccc4)CC3)ccc2C)cc1 |  | inconclusive: 50.1 µM [inhibitor, partial curve]
CCOc1cc(/C=N/n2c(COc3ccccc3)n[nH]c2=S)ccc1O |  | inconclusive: 20 µM [inhibitor, partial curve, poor fit]
COc1ccc(C(=O)ON=C2C=C(C)C(=O)C(C)=C2)cc1 | inactive: -1.38% | 
Cc1onc(-c2ccccc2)c1C(=O)N/N=C/c1cc(Br)c(Br)o1 |  | inconclusive: 79.4 µM [inhibitor, partial curve]
COC(=O)c1sccc1NC(=S)N1CCC(C(N)=O)CC1 | inactive: -11.2% | 
N=c1c2c(ccn1CCCCc1ccccc1)Oc1ccc3ccccc3c1C2c1ccccc1 (stereo unspecified) |  | inconclusive: 2.24 µM [inhibitor, full curve, poor fit]
CC1c2[nH]c3ccccc3c2CCN1C(=O)Nc1ccccc1 (stereo unspecified) |  | inconclusive: 79.4 µM [inhibitor, partial curve]
COc1ccccc1C(=O)CSc1n[nH]c(N)n1 | inactive: -26.9% | 
COc1ccc(/C=C/C(=O)Nc2c(C(=O)O)[nH]c3ccccc23)cc1OC | inactive: -14.7% [at 11.4 µM] | 
